US5760092A, “Allocolchinones and uses thereof” (Brandeis University, priority 1996, dated 1998)

Columns and labels:
[1] = test system: HL-60 (TB) leukemia cells
[2] = test system: A549/ATCC non-small cell lung cancer cells
[3] = test system: NCI-H23 non-small cell lung cancer cells
[4] = test system: NCI-H522 non-small cell lung cancer cells
[5] = test system: HCT-15 colon cancer cells
[6] = test system: CCRF-CEM leukemia cells; assay: cells; details: Homo sapiens
[7] = test system: SW-620 colon cancer cells
[8] = test system: HL-60 (TB) leukemia cells; assay: cells; details: Homo sapiens, HL-60
[9] = test system: MALME-3M melanoma cells
[10] = test system: SK-MEL-5 melanoma cells
[11] = test system: UACC-62 melanoma cells
[12] = test system: K-562 leukemia cells; assay: cells; details: Homo sapiens
[13] = test system: OVCAR-5 ovarian cancer cells
[14] = test system: 786-0 renal cancer cells
[15] = test system: TK-10 renal cancer cells
[16] = test system: MCF7 breast cancer cells
[17] = test system: A549/ATCC non-small cell lung cancer cells; assay: cells; details: Homo sapiens
[18] = test system: NCI-H460 non-small cell lung cancer cells; assay: cells; details: Homo sapiens
[19] = test system: NCI-H522 non-small cell lung cancer cells; assay: cells; details: Homo sapiens
[20] = test system: COLO 205 colon cancer cells; assay: cells; details: Homo sapiens
[21] = test system: HCC-2998 colon cancer cells; assay: cells; details: Homo sapiens
[22] = test system: HCT-116 colon cancer cells; assay: cells; details: Homo sapiens
[23] = test system: HCT-15 colon cancer cells; assay: cells; details: Homo sapiens
[24] = test system: SW-620 colon cancer cells; assay: cells; details: Homo sapiens
[25] = test system: MALME-3M melanoma cells; assay: cells; details: Homo sapiens
[26] = test system: SK-MEL-5 melanoma cells; assay: cells; details: Homo sapiens
[27] = test system: OVCAR-5 ovarian cancer cells; assay: cells; details: Homo sapiens
[28] = test system: 786-0 renal cancer cells; assay: cells; details: Homo sapiens
[29] = test system: ACHN renal cancer cells; assay: cells; details: Homo sapiens
[30] = test system: TK-10 renal cancer cells; assay: cells; details: Homo sapiens
[31] = test system: UO-31 renal cancer cells; assay: cells; details: Homo sapiens
[32] = test system: PC-3 prostate cancer cells; assay: cells
[33] = test system: MCF7 breast cancer cells; assay: cells; details: Homo sapiens
[34] = test system: T-47D breast cancer cells; assay: cells; details: Homo sapiens, T47D
[35] = read-out: Percent Growth, log10 conc -4.0
[36] = read-out: Percent Growth, log10 conc -5.0
[37] = read-out: Percent Growth, log10 conc -6.0
[38] = read-out: Percent Growth, log10 conc -7.0
[39] = read-out: Percent Growth, log10 conc -8.0

For `COc1cc2c(c(OC)c1OC)-c1ccc(OC)c(=O)cc1[C@@H](NC(C)=O)CC2` [Colchicine, reference compound], the TGI [1] was 82.2 nM, the TGI [2] was > 100000 nM and the TGI [3] was > 100000 nM. For the same molecule, the TGI [4] was 52.9 nM, the TGI [5] was 1350 nM and the GI50 [6] was 15 nM. For the same molecule, the activity at 100 µM [6, 35] was 4%, the activity at 10 µM [6, 36] was 3% and the activity at 1 µM [6, 37] was 2%. The activity at 0.1 µM [6, 38] was 7%, the activity at 0.01 µM [6, 39] was 59% and the TGI [7] was 22500 nM. The GI50 [8] was 12.9 nM, the TGI [9] was 38600 nM and the TGI [10] was 88600 nM. For the same molecule, the TGI [11] was 16600 nM, the GI50 ([12]; K562) was 16.2 nM and the activity at 100 µM ([12]; K562, read-out: Percent Growth, log10 conc -4.0) was 6%. For the same molecule, the activity at 10 µM ([12]; K562, read-out: Percent Growth, log10 conc -5.0) was 11%, the activity at 1 µM ([12]; K562, read-out: Percent Growth, log10 conc -6.0) was 14% and the activity at 0.1 µM ([12]; K562, read-out: Percent Growth, log10 conc -7.0) was 16%. For the same molecule, the activity at 0.01 µM ([12]; K562, read-out: Percent Growth, log10 conc -8.0) was 59%, the TGI [13] was 30100 nM and the TGI [14] was > 100000 nM. For the same molecule, the TGI [15] was > 100000 nM, the TGI [16] was > 100000 nM and the GI50 ([17]; A549) was 261 nM. The activity at 100 µM ([17]; A549, read-out: Percent Growth, log10 conc -4.0) was 11%, the activity at 10 µM ([17]; A549, read-out: Percent Growth, log10 conc -5.0) was 38% and the activity at 1 µM ([17]; A549, read-out: Percent Growth, log10 conc -6.0) was 41%. The activity at 0.1 µM ([17]; A549, read-out: Percent Growth, log10 conc -7.0) was 56%, the GI50 ([18]; NCI-H460) was 22.3 nM and the activity at 100 µM ([18]; NCI-H460, read-out: Percent Growth, log10 conc -4.0) was -15%. The activity at 10 µM ([18]; NCI-H460, read-out: Percent Growth, log10 conc -5.0) was -42%, the activity at 1 µM ([18]; NCI-H460, read-out: Percent Growth, log10 conc -6.0) was -48% and the activity at 0.1 µM ([18]; NCI-H460, read-out: Percent Growth, log10 conc -7.0) was -31%. The activity at 0.01 µM ([18]; NCI-H460, read-out: Percent Growth, log10 conc -8.0) was 93%, the GI50 ([19]; NCI-H522) was 14.5 nM and the activity at 10 µM ([19]; NCI-H522, read-out: Percent Growth, log10 conc -5.0) was -8%. The activity at 1 µM ([19]; NCI-H522, read-out: Percent Growth, log10 conc -6.0) was -5%, the activity at 0.1 µM ([19]; NCI-H522, read-out: Percent Growth, log10 conc -7.0) was -25% and the activity at 0.01 µM ([19]; NCI-H522, read-out: Percent Growth, log10 conc -8.0) was 64%. For the same molecule, the GI50 ([20]; COLO 205) was 15 nM, the activity at 100 µM ([20]; COLO 205, read-out: Percent Growth, log10 conc -4.0) was -81% and the activity at 0.1 µM ([20]; COLO 205, read-out: Percent Growth, log10 conc -7.0) was 23%. For the same molecule, the activity at 0.01 µM ([20]; COLO 205, read-out: Percent Growth, log10 conc -8.0) was 56%, the GI50 ([21]; HCC 2998) was 30.7 nM and the activity at 100 µM ([21]; HCC 2998, read-out: Percent Growth, log10 conc -4.0) was -14%. For the same molecule, the activity at 10 µM ([21]; HCC 2998, read-out: Percent Growth, log10 conc -5.0) was 8%, the activity at 1 µM ([21]; HCC 2998, read-out: Percent Growth, log10 conc -6.0) was 11% and the activity at 0.1 µM ([21]; HCC 2998, read-out: Percent Growth, log10 conc -7.0) was 3%. The activity at 0.01 µM ([21]; HCC 2998, read-out: Percent Growth, log10 conc -8.0) was 95%, the GI50 ([22]; HCT-116) was 32.7 nM and the activity at 10 µM ([22]; HCT-116, read-out: Percent Growth, log10 conc -5.0) was 33%. It also gave an activity at 1 µM ([22]; HCT-116, read-out: Percent Growth, log10 conc -6.0) of 32%, an activity at 0.1 µM ([22]; HCT-116, read-out: Percent Growth, log10 conc -7.0) of 26% and an activity at 0.01 µM ([22]; HCT-116, read-out: Percent Growth, log10 conc -8.0) of 76%. The GI50 ([23]; HCT-15) was 209 nM, the activity at 100 µM ([23]; HCT-15, read-out: Percent Growth, log10 conc -4.0) was -31% and the activity at 10 µM ([23]; HCT-15, read-out: Percent Growth, log10 conc -5.0) was -25%. It also gave an activity at 1 µM ([23]; HCT-15, read-out: Percent Growth, log10 conc -6.0) of 4%, an activity at 0.1 µM ([23]; HCT-15, read-out: Percent Growth, log10 conc -7.0) of 72% and an activity at 0.01 µM ([23]; HCT-15, read-out: Percent Growth, log10 conc -8.0) of 104%. It also gave a GI50 ([24]; SW-620) of 21.7 nM, an activity at 100 µM ([24]; SW-620, read-out: Percent Growth, log10 conc -4.0) of -31% and an activity at 10 µM ([24]; SW-620, read-out: Percent Growth, log10 conc -5.0) of 17%. It also gave an activity at 1 µM ([24]; SW-620, read-out: Percent Growth, log10 conc -6.0) of 11%, an activity at 0.1 µM ([24]; SW-620, read-out: Percent Growth, log10 conc -7.0) of 15% and an activity at 0.01 µM ([24]; SW-620, read-out: Percent Growth, log10 conc -8.0) of 68%. For the same molecule, the GI50 [25] was 18.6 nM, the activity at 100 µM [25, 35] was -30% and the activity at 10 µM [25, 36] was 42%. For the same molecule, the activity at 1 µM [25, 37] was 44%, the activity at 0.1 µM [25, 38] was 38% and the activity at 0.01 µM [25, 39] was 54%. The GI50 ([26]; SK-MEL-5) was < 10 nM, the activity at 100 µM ([26]; SK-MEL-5, read-out: Percent Growth, log10 conc -4.0) was 0% and the activity at 10 µM ([26]; SK-MEL-5, read-out: Percent Growth, log10 conc -5.0) was 8%. The activity at 1 µM ([26]; SK-MEL-5, read-out: Percent Growth, log10 conc -6.0) was 9%, the activity at 0.1 µM ([26]; SK-MEL-5, read-out: Percent Growth, log10 conc -7.0) was 9% and the activity at 0.01 µM ([26]; SK-MEL-5, read-out: Percent Growth, log10 conc -8.0) was 47%. The GI50 ([27]; OVCAR-5) was 76.3 nM, the activity at 100 µM ([27]; OVCAR-5, read-out: Percent Growth, log10 conc -4.0) was -47% and the activity at 10 µM ([27]; OVCAR-5, read-out: Percent Growth, log10 conc -5.0) was 43%. For the same molecule, the activity at 1 µM ([27]; OVCAR-5, read-out: Percent Growth, log10 conc -6.0) was 44%, the activity at 0.1 µM ([27]; OVCAR-5, read-out: Percent Growth, log10 conc -7.0) was 45% and the activity at 0.01 µM ([27]; OVCAR-5, read-out: Percent Growth, log10 conc -8.0) was 86%. For the same molecule, the GI50 ([28]; 786-0) was 77.4 nM, the activity at 100 µM ([28]; 786-0, read-out: Percent Growth, log10 conc -4.0) was 10% and the activity at 10 µM ([28]; 786-0, read-out: Percent Growth, log10 conc -5.0) was 33%. It also gave an activity at 1 µM ([28]; 786-0, read-out: Percent Growth, log10 conc -6.0) of 30%, an activity at 0.1 µM ([28]; 786-0, read-out: Percent Growth, log10 conc -7.0) of 44% and an activity at 0.01 µM ([28]; 786-0, read-out: Percent Growth, log10 conc -8.0) of 95%. For the same molecule, the GI50 [29] was 369 nM, the activity at 100 µM [29, 35] was 24% and the activity at 10 µM [29, 36] was 41%. For the same molecule, the activity at 1 µM [29, 37] was 44%, the activity at 0.1 µM [29, 38] was 58% and the GI50 ([30]; TK-10) was > 100000 nM. The activity at 100 µM ([30]; TK-10, read-out: Percent Growth, log10 conc -4.0) was 71%, the activity at 10 µM ([30]; TK-10, read-out: Percent Growth, log10 conc -5.0) was 80% and the activity at 1 µM ([30]; TK-10, read-out: Percent Growth, log10 conc -6.0) was 76%. For the same molecule, the activity at 0.1 µM ([30]; TK-10, read-out: Percent Growth, log10 conc -7.0) was 73%, the GI50 ([31]; UO-31) was 515 nM and the activity at 100 µM ([31]; UO-31, read-out: Percent Growth, log10 conc -4.0) was 12%. It also gave an activity at 10 µM ([31]; UO-31, read-out: Percent Growth, log10 conc -5.0) of 29%, an activity at 1 µM ([31]; UO-31, read-out: Percent Growth, log10 conc -6.0) of 32% and an activity at 0.1 µM ([31]; UO-31, read-out: Percent Growth, log10 conc -7.0) of 95%. It also gave an activity at 0.01 µM ([31]; UO-31, read-out: Percent Growth, log10 conc -8.0) of 94%, a GI50 [32] of 23.8 nM and an activity at 100 µM [32, 35] of 6%. For the same molecule, the activity at 10 µM [32, 36] was 8%, the activity at 1 µM [32, 37] was 5% and the activity at 0.1 µM [32, 38] was 16%. For the same molecule, the activity at 0.01 µM [32, 39] was 71%, the GI50 ([33]; MCF7) was 13 nM and the activity at 100 µM ([33]; MCF7, read-out: Percent Growth, log10 conc -4.0) was 8%. The activity at 10 µM ([33]; MCF7, read-out: Percent Growth, log10 conc -5.0) was 17%, the activity at 1 µM ([33]; MCF7, read-out: Percent Growth, log10 conc -6.0) was 18% and the activity at 0.1 µM ([33]; MCF7, read-out: Percent Growth, log10 conc -7.0) was 19%. It also gave an activity at 0.01 µM ([33]; MCF7, read-out: Percent Growth, log10 conc -8.0) of 54%, a GI50 [34] of 61400 nM and an activity at 100 µM [34, 35] of 42%. For the same molecule, the activity at 10 µM [34, 36] was 82%, the activity at 1 µM [34, 37] was 79% and the activity at 0.1 µM [34, 38] was 89%. For the same molecule, the activity at 0.01 µM [34, 39] was 81%.
